Marks after values point to notes of the source that are not given here.
Key:
[1] = tested on: HEK293/CRE-Luc cells; test: Flow cytometry cell binding, HEK293/CRE-Luc control cells (Example 18); parameters: species or system human; conditions: Table 30, control cells lacking GLP1R; for EC50: no unit printed in table (text reads values as M); for HEK293/CRE-Luc Flow S/N: signal to noise
Method: GLP1R agonist linker payloads were conjugated to anti-GLP1R antibodies via N-terminal heavy or light chain Glutamine (Q) tags. Several resulting anti-GLP1R-GLP1R agonist antibody tethered drug conjugates (ATDCs) and their unconjugated parental antibodies were tested for cell-based binding activity. The cell surface binding of the anti-GLP1R ATDCs to human GLP1R (HEK293/CRE-Luc/hGLP1R), cynomolgus GLP1R (HEK293/CRE-Luc/mfGLP1R), and control cells lacking expression of GLP1R (HEK293/CRE-Luc) was assessed via flow cytometry. For the assay, 61,000-230,000 cells were suspended in PBS, w/2% FBS and 0.2% sodium azide (staining buffer) in 96 well V-bottom plates and incubated for 30 minutes at 4° C. with three-fold serial dilutions of the anti-GLP1R ATDCs, non-binding control ATDCs, or unconjugated anti-GLP1R antibodies. The last well in each row of the plate served as a blank control containing only secondary antibody and was plotted as a continuation of the 3-fold serial dilution. […] Cells were then washed once and stained with a cell viability dye (Live/dead Fixable Green Dead Cell Stain Kit for 488 nm excitation, Molecular Probes cat #L34970) at 1× in PBS for 20 minutes at 4° C. Cells were washed once in staining buffer, fixed for 20 minutes at 4° C. using a 50% solution of Cytofix (BD Biosciences, Cat #554655) diluted in PBS, and washed again in staining buffer. Samples were filtered through Pall 96 well plate PP/PE mesh filter system and collected in Costar 96 well plate. Samples were run on the iQue flow cytometer (Intellicyte) and results were analyzed using Forecyte analysis software (Intellicyte) to calculate the mean fluorescent intensity (MFI) after gating for live cells. EC50 values were determined using a four-parameter logistic equation over a 10-point dose response curve (GraphPad Prism). The signal to noise (S/N) was determined by taking the ratio of the highest MFI on the dose response curve to the MFI in the secondary alone wells.

[2] = tested on: HEK293/CRE-Luc cells; test: Luciferase reporter assay, HEK293/CRE-Luc cells without hGLP1R (Example 11); format: cell-based, human; conditions: Table 12; Experiment D
From the text: To test the activity of GLP1R agonist payloads, GLP1R agonist linker-payloads (LPs), and anti-GLP1R antibody tethered drug conjugates (ATDCs) of the disclosure, a cell-based cAMP responsive luciferase reporter assay was developed. To generate the assay cell line, the firefly luciferase gene was placed under the control of a cAMP response element (CRE) located upstream of a minimal promoter and transfected into HEK293 cells and referred to herein as HEK293/CRE-Luc cells.
Three-fold serial dilutions of free payloads or LPs were prepared in 100% DMSO, transferred to fresh assay media, and added to the cells at a final constant DMSO concentration of 0.2%. The last well in the plate served as a blank control containing only the assay media and 0.2% DMSO (untreated well) and was plotted as a continuation of the 3-fold serial dilution. Four to six hours later, luciferase activity was determined after the addition of One-Glo™ reagent (Promega, Cat #E6130) to each well. Relative light units (RLUs) were measured on an Envision luminometer (PerkinElmer) and EC50 values were determined using a four-parameter logistic equation over a 12-point dose response curve (GraphPad Prism). The signal to noise (S/N) was determined by taking the ratio of the highest RLU on the dose response curve to the RLU in the untreated wells.

[3] = Blood glucose in diet-induced obese GLP1R humanized mice (Example 12); format: in vivo; conditions: 25 mg/kg s.c. once on day 0
From the text: (§1) To determine body weight and blood glucose lowering effects of three anti-GLP1R antibody-tethered-drug conjugates (ATDCs) in obese animals, mice homozygous for the expression of human GLP1R in place of mouse GLP1R (referred to as GLP1R humanized mice) were placed on high-fat diet (60% kcal % fat) for 6 months. Forty-four, 9-month-old male, GLP1R humanized mice were stratified into six groups of five to eight mice, based on their day 0 body weights. After the stratification, each group was subcutaneously administered with 25 mg/kg of COMP anti-GLP1R mAb1-LP4 (n=8), anti-GLP1R mAb3-LP11 (n=8), anti-GLP1R mAb4-LP11 (n=5), control anti-GLP1R mAb (n=7), isotype control mAb ATDC (n=8) or reference compound (n=8) on day 0.
(§2) The control anti-GLP1R mAb is antibody 5A10 described in US Publication No. US20060275288A1, which is incorporated herein by reference in its entirety. […] COMP anti-GLP1R mAb1-LP4 comprises the same control anti-GLP1R mAb with a N-terminal heavy chain Q-tag.
(§3) On days three and seven post administration and weekly from day fourteen to day fifty-six, body weights of the animals were recorded, and their blood glucose levels were measured with a handheld glucometer. Mean±SEM of percent changes in body weight from day 0 at each time point was calculated for each group and are shown in Table 14. Statistical analyses were performed by two-way ANOVA followed by Bonferroni post-hoc tests, comparing the control antibody group to the other five groups.

[4] = Body weight in diet-induced obese GLP1R humanized mice (Example 12); format: in vivo; conditions: 25 mg/kg s.c. once on day 0
From the text: as §1, §2, §3

[5] = biological target: T1, hGLP1R-MMH (N-terminal region of human GLP1R) (Homo sapiens, UniProt P43220); test: Biacore binding kinetics (surface plasmon resonance); conditions: 25° C.
T1 construct: the N-terminal ectodomain of human GLP1R expressed with a myc-myc hexahistidine tag
T1 sequence (P43220 24-139 limits assumed): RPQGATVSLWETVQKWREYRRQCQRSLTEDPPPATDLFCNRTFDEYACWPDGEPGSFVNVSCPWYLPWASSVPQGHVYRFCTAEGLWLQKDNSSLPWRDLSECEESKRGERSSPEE
Method: The equilibrium dissociation constant (KD) for GLP1R binding to different unconjugated GLP1R monoclonal antibodies (mAbs) or to GLP1R antibody tethered drug conjugates (ATDCs) was determined using a real-time surface plasmon resonance biosensor using a Biacore 3000, Biacore S200, Biacore 4000, Biacore T-200, or a Sierra Sensor MASS-2 instrument. All binding studies were performed in 10 mM HEPES, 150 mM NaCl, 3 mM EDTA, and 0.05% v/v Surfactant Tween-20, pH 7.4 (HBS-ET) running buffer at 25° C. The Biacore CM5 sensor chip surface was first derivatized by amine coupling with human Fc specific mouse mAb (REGN2567) to capture different GLP1R mAbs or ATDCs. Different concentrations (100, 90, 33.3, 30, 11.1, 10, 3.7, 3.3 and 1.1 nM) of the N-terminal region of human GLP1R expressed with a myc-myc-hexahistidine tag (“hexahistidine tag” disclosed as SEQ ID NO: 441) (hGLP1R-MMH) prepared in HBS-ET running buffer were injected over the GLP1R mAb captured surface for 240 or 300 sec at a flow rate of 50 μL/min and their dissociation in HBS-ET running buffer was monitored for 10 minutes. […]
The association rate (ka) and dissociation rate (kd) were determined by fitting the real-time binding sensorgrams to a 1:1 binding model with mass transport limitation using Scrubber 2.0c curve-fitting software. […]

B1: REGN8070 unconjugated Ab (antibody)
heavy: QVQLVESGGGVGQPGRSLRLSCAASGFTFSRNAMHWVRQAPGKGLEWVAVISYDGSNKHYADSVKGRFTISRDNSKNTLYLEMNSLRVEDTAVYYCAKGGIPFDYWGQGTLVTVSSASTKGPSVFPLAPCSRSTSESTAALGCLVKDYFPEPVTVSWNSGALTSGVHTFPAVLQSSGLYSLSSVVTVPSSSLGTKTYTCNVDHKPSNTKVDKRV[human IgG4 Fc with S228P (EU numbers) left out here]
light: LLQGSGDIVMTQSPLSSPVTLGQPASISCRSSQSLVHFDGNTYLSWLHQRPGQPPRLLIYKISNRFSGVPDRFSGSGAGTDFTLKISRVEPEDVGVYYCMHATQFPYTFGQGTKLEIKRTVAAPSVFIFPPSDEQLKSGTASVVCLLNNFYPREAKVQWKVDNALQSGNSQESVTEQDSKDSTYSLSSTLTLSKADYEKHKVYACEVTHQGLSSPVTKSFNRGEC
In the case of B1, the EC50 [1] is reported as > 100 nM and the “HEK293/CRE-Luc Flow S/N” value [1] is reported as 1.4.

B2: REGN8072 unconjugated Ab (antibody)
heavy: QVQLVESGGGVVQPARSLRLSCAASGFAFSRSAMHWVRQAPGKGLEWVAVISYDGSNKYYTDSVKGRFTISRDNSKNTLYLQMNTLRAEDTALYYCAKMYTTMDSFDYWGQGTLVTVSSASTKGPSVFPLAPCSRSTSESTAALGCLVKDYFPEPVTVSWNSGALTSGVHTFPAVLQSSGLYSLSSVVTVPSSSLGTKTYTCNVDHKPSNTKVDKRV[human IgG4 Fc with S228P (EU numbers) left out here]
light: LLQGSGDIQLTQSPSFLSASVGDRVTITCWASQGISSYLAWYQQKPGKAPKLLIYAASTLQSGVPSRFSGSGSGTEFTLTISSLQPEDFALYYCQQLNSYPRTFGQGTKVEIKRTVAAPSVFIFPPSDEQLKSGTASVVCLLNNFYPREAKVQWKVDNALQSGNSQESVTEQDSKDSTYSLSSTLTLSKADYEKHKVYACEVTHQGLSSPVTKSFNRGEC
For B2, the EC50 [1] was > 100 nM and the “HEK293/CRE-Luc Flow S/N” value [1] was 2.1.

B3: COMP Anti-GLP1R mAb1-LP4 (conjugate)
heavy: LLQGSGQVTLKESGPGILQPSQTLSLTCSFSGFSLSTSGTGVGWIRQPSGKGLEWLSHIWWDDVKRYNPALKSRLTISRDTSYSQVFLRIASVDTADTATYYCARILDGTGPMDYWGQGTSVTVSSASTKGPSVFPLAPCSRSTSESTAALGCLVKDYFPEPVTVSWNSGALTSGVHTFPAVLQSSGLYSLSSVVTVPSSSLGTKTYTCNVDHKPSNTKVDKRV[human IgG4 Fc with S228P (EU numbers) left out here]
light: QIVLTQSPAIMSASPGEKVTMTCSASSRVTYMHWYQQRSGTSPKRWIYDTSKLASGVPARFSGSGSGTSYSLTISSMEAEDAATYYCQQWGNNPQYTFGGGTRLEIKRRTVAAPSVFIFPPSDEQLKSGTASVVCLLNNFYPREAKVQWKVDNALQSGNSQESVTEQDSKDSTYSLSSTLTLSKADYEKHKVYACEVTHQGLSSPVTKSFNRGEC
For B3, the EC50 [2] was > 20 nM, the “HEK293/CRE-Luc S/N” value [2] was 1.6 and the “blood glucose level, Mean” value ([3]; day 0) was 214. For the same molecule, the “blood glucose level, Mean” value ([3]; day 3) was 144****, the “blood glucose level, Mean” value ([3]; day 7) was 158* and the “blood glucose level, Mean” value ([3]; day 14) was 167. The “blood glucose level, Mean” value ([3]; day 20) was 176, the “blood glucose level, Mean” value ([3]; day 28) was 197 and the “blood glucose level, Mean” value ([3]; day 35) was 211. The “blood glucose level, Mean” value ([3]; day 42) was 208, the “blood glucose level, Mean” value ([3]; day 49) was 215 and the “blood glucose level, Mean” value ([3]; day 56) was 196. For the same molecule, the “percent body weight change from day 0, Mean” value (“percent body weight change” below) ([4]; day 0) was 0%, the “percent body weight change” value ([4]; day 3) was −8.8% and the “percent body weight change” value ([4]; day 7) was −14.5**** %. For the same molecule, the “percent body weight change” value ([4]; day 14) was −19.6**** %, the “percent body weight change” value ([4]; day 20) was −18.0**** % and the “percent body weight change” value ([4]; day 28) was −13.7**** %. For the same molecule, the “percent body weight change” value ([4]; day 35) was −11.2*** %, the “percent body weight change” value ([4]; day 42) was −8.3** % and the “percent body weight change” value ([4]; day 49) was −6.5%. The “percent body weight change” value ([4]; day 56) was −5.0%.

B4: H4H30452P (antibody, V domains shown)
VH: [about 100 residues left out here]GLIAPRPMGFDYWGQGTLVTVSS
VL: DIQMTQSPSSVSASVGDRVTITCRASQGINSWLAWYQQKPGKAPKLLIYAASSLQSGVPSRFSGSGSGTDFTLTISSLQPEDFATYYCHQADSFPYTFGQGTKLEIK
In the case of B4, the Ka ([5]; association rate) is reported as 218000 M⁻¹ s⁻¹ and the “dissociation rate constant (kd)” value ([5]; dissociation rate) is reported as 0.00118 s⁻¹.
